# Paper PMC9911399, “Two distinct binding modes provide the RNA-binding protein RbFox with extraordinary sequence specificity”
# Substitutions are numbered along the chain they refer to; changes in the protein carry UniProt numbers. The list shows a part of the results.
# T1: RBFOX1 RRM RbFoxmut (Fox-RRM*) (Homo sapiens, UniProt Q9NWB1 109-208, R118D;E147R;N151S;E152T)
# T1 sequence: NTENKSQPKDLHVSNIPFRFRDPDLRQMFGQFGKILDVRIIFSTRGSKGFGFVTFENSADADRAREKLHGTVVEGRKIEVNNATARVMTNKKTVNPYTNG
# B1: CGCGCCC (DNA:RNA)
# RNA: GGGAGACCGGAAUUCAGAUUGUCCCGCGCCCUUAAAUCCCGUCGUAGCCACCA
# DNA 1: CAATCTGAATTCCGGTCTCCC
# DNA 2: TGGTGGCTACGACGGGATT
# B2: AGAAGGA (DNA:RNA)
# RNA: B1 RNA with C25A, C27A, G28A, C29G, C30G, C31A
# DNA 1: CAATCTGAATTCCGGTCTCCC
# DNA 2: TGGTGGCTACGACGGGATT
# B3: GCUGAGU (DNA:RNA)
# RNA: B1 RNA with C25G, G26C, C27U, C29A, C30G, C31U
# DNA 1: CAATCTGAATTCCGGTCTCCC
# DNA 2: TGGTGGCTACGACGGGATT
# B4: GCAUUUU (DNA:RNA)
# RNA: GGGAGACCGGAAUUCAGAUUGUCCGCAUUUUUUAAAUCCCGUCGUAGCCACCA
# DNA 1: CAATCTGAATTCCGGTCTCCC
# DNA 2: TGGTGGCTACGACGGGATT
# B5: AUAGCAG (DNA:RNA)
# RNA: B1 RNA with C25A, G26U, C27A, C30A, C31G
# DNA 1: CAATCTGAATTCCGGTCTCCC
# DNA 2: TGGTGGCTACGACGGGATT
# B6: ACAUACC (DNA:RNA)
# RNA: B4 RNA with G25A, U29A, U30C, U31C
# DNA 1: CAATCTGAATTCCGGTCTCCC
# DNA 2: TGGTGGCTACGACGGGATT
# B7: CCUAAGU (DNA:RNA)
# RNA: B4 RNA with G25C, A27U, U28A, U29A, U30G
# DNA 1: CAATCTGAATTCCGGTCTCCC
# DNA 2: TGGTGGCTACGACGGGATT
# B8: GACAUGA (DNA:RNA)
# RNA: B4 RNA with C26A, A27C, U28A, U30G, U31A
# DNA 1: CAATCTGAATTCCGGTCTCCC
# DNA 2: TGGTGGCTACGACGGGATT
# B9: AGGGCAU (DNA:RNA)
# RNA: B1 RNA with C25A, C27G, C30A, C31U
# DNA 1: CAATCTGAATTCCGGTCTCCC
# DNA 2: TGGTGGCTACGACGGGATT
# B10: CCCAAUA (DNA:RNA)
# RNA: B1 RNA with G26C, G28A, C29A, C30U, C31A
# DNA 1: CAATCTGAATTCCGGTCTCCC
# DNA 2: TGGTGGCTACGACGGGATT
# B11: UGCUUUU (DNA:RNA)
# RNA: B4 RNA with G25U, C26G, A27C
# DNA 1: CAATCTGAATTCCGGTCTCCC
# DNA 2: TGGTGGCTACGACGGGATT
# B12: GACAGUU (DNA:RNA)
# RNA: B4 RNA with C26A, A27C, U28A, U29G
# DNA 1: CAATCTGAATTCCGGTCTCCC
# DNA 2: TGGTGGCTACGACGGGATT
# B13: UAAGACA (DNA:RNA)
# RNA: B1 RNA with C25U, G26A, C27A, C29A, C31A
# DNA 1: CAATCTGAATTCCGGTCTCCC
# DNA 2: TGGTGGCTACGACGGGATT
# B14: UCCUCUU (DNA:RNA)
# RNA: B4 RNA with G25U, A27C, U29C
# DNA 1: CAATCTGAATTCCGGTCTCCC
# DNA 2: TGGTGGCTACGACGGGATT
# B15: CACCAGA (DNA:RNA)
# RNA: B1 RNA with G26A, G28C, C29A, C30G, C31A
# DNA 1: CAATCTGAATTCCGGTCTCCC
# DNA 2: TGGTGGCTACGACGGGATT
# B16: CGAGAAA (DNA:RNA)
# RNA: B1 RNA with C27A, C29A, C30A, C31A
# DNA 1: CAATCTGAATTCCGGTCTCCC
# DNA 2: TGGTGGCTACGACGGGATT
# B17: CACACGG (DNA:RNA)
# RNA: B1 RNA with G26A, G28A, C30G, C31G
# DNA 1: CAATCTGAATTCCGGTCTCCC
# DNA 2: TGGTGGCTACGACGGGATT
# B18: GCACCUC (DNA:RNA)
# RNA: B4 RNA with U28C, U29C, U31C
# DNA 1: CAATCTGAATTCCGGTCTCCC
# DNA 2: TGGTGGCTACGACGGGATT
# B19: UAUGAAG (DNA:RNA)
# RNA: B1 RNA with C25U, G26A, C27U, C29A, C30A, C31G
# DNA 1: CAATCTGAATTCCGGTCTCCC
# DNA 2: TGGTGGCTACGACGGGATT
# B20: UGUGAUG (DNA:RNA)
# RNA: B1 RNA with C25U, C27U, C29A, C30U, C31G
# DNA 1: CAATCTGAATTCCGGTCTCCC
# DNA 2: TGGTGGCTACGACGGGATT
# B21: CUGAGCG (DNA:RNA)
# RNA: B1 RNA with G26U, C27G, G28A, C29G, C31G
# DNA 1: CAATCTGAATTCCGGTCTCCC
# DNA 2: TGGTGGCTACGACGGGATT
# B22: GGCCAGC (DNA:RNA)
# RNA: B1 RNA with C25G, G28C, C29A, C30G
# DNA 1: CAATCTGAATTCCGGTCTCCC
# DNA 2: TGGTGGCTACGACGGGATT
# B23: GCCAUCC (DNA:RNA)
# RNA: B1 RNA with C25G, G26C, G28A, C29U
# DNA 1: CAATCTGAATTCCGGTCTCCC
# DNA 2: TGGTGGCTACGACGGGATT
# B24: UAGCGUC (DNA:RNA)
# RNA: B1 RNA with C25U, G26A, C27G, G28C, C29G, C30U
# DNA 1: CAATCTGAATTCCGGTCTCCC
# DNA 2: TGGTGGCTACGACGGGATT
# B25: UAUUUGA (DNA:RNA)
# RNA: B4 RNA with G25U, C26A, A27U, U30G, U31A
# DNA 1: CAATCTGAATTCCGGTCTCCC
# DNA 2: TGGTGGCTACGACGGGATT
# B26: GUGUUUA (DNA:RNA)
# RNA: B4 RNA with C26U, A27G, U31A
# DNA 1: CAATCTGAATTCCGGTCTCCC
# DNA 2: TGGTGGCTACGACGGGATT
# B27: AUGUAAC (DNA:RNA)
# RNA: B1 RNA with C25A, G26U, C27G, G28U, C29A, C30A
# DNA 1: CAATCTGAATTCCGGTCTCCC
# DNA 2: TGGTGGCTACGACGGGATT
# B28: CUUACCU (DNA:RNA)
# RNA: B1 RNA with G26U, C27U, G28A, C31U
# DNA 1: CAATCTGAATTCCGGTCTCCC
# DNA 2: TGGTGGCTACGACGGGATT
# B29: UAACUAA (DNA:RNA)
# RNA: B4 RNA with G25U, C26A, U28C, U30A, U31A
# DNA 1: CAATCTGAATTCCGGTCTCCC
# DNA 2: TGGTGGCTACGACGGGATT
# B30: CCAGCAU (DNA:RNA)
# RNA: B1 RNA with G26C, C27A, C30A, C31U
# DNA 1: CAATCTGAATTCCGGTCTCCC
# DNA 2: TGGTGGCTACGACGGGATT
# B31: AAGCCCG (DNA:RNA)
# RNA: B1 RNA with C25A, G26A, C27G, G28C, C31G
# DNA 1: CAATCTGAATTCCGGTCTCCC
# DNA 2: TGGTGGCTACGACGGGATT
# Biological target: T1, RBFOX1 RRM RbFoxmut (Fox-RRM*)
# Assay: EMSA; HiTS-Eq, 1 nM pool, 10 min; buffer printed only for the single-RNA assays: 10 mM Tris pH 7.5, 150 mM NaCl, 3.4 mM EDTA, 0.001% NP-40, 30 C
# Settings: tags: His6 N-terminal (pET28a); label: 5' 32P
# How it was run: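 These values rest on relative association constants, computed from read-count changes of each RNA species versus the control reaction and normalised to the cognate motif. Reads came from free RNA recovered by 8% native PAGE after purified RbFox RRM (wild type or mutant) at increasing concentrations was equilibrated for 10 min in 50 µL with 1 nM of a 5′-radiolabelled pool with 7 randomized nucleotides and DNA-annealed flanks.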
row,Binder,binding signal
1,B1,0.072 KA relative to UGCAUGU
2,B2,0.0704 KA relative to UGCAUGU
3,B3,0.123 KA relative to UGCAUGU
4,B4,0.113 KA relative to UGCAUGU
5,B5,0.103 KA relative to UGCAUGU
6,B6,0.0988 KA relative to UGCAUGU
7,B7,0.104 KA relative to UGCAUGU
8,B8,0.0981 KA relative to UGCAUGU
9,B9,0.088 KA relative to UGCAUGU
10,B10,0.105 KA relative to UGCAUGU
11,B11,0.0948 KA relative to UGCAUGU
12,B12,0.0724 KA relative to UGCAUGU
13,B13,0.0672 KA relative to UGCAUGU
14,B14,0.0932 KA relative to UGCAUGU
15,B15,0.113 KA relative to UGCAUGU
16,B16,0.0733 KA relative to UGCAUGU

row,Binder,binding signal
1,B17,0.106 KA relative to UGCAUGU
2,B18,0.0567 KA relative to UGCAUGU
3,B19,0.115 KA relative to UGCAUGU
4,B20,1.01 KA relative to UGCAUGU
5,B21,0.151 KA relative to UGCAUGU
6,B22,0.0622 KA relative to UGCAUGU
7,B23,0.0576 KA relative to UGCAUGU
8,B24,0.0895 KA relative to UGCAUGU
9,B25,0.0703 KA relative to UGCAUGU
10,B26,0.142 KA relative to UGCAUGU
11,B27,0.139 KA relative to UGCAUGU
12,B28,0.0997 KA relative to UGCAUGU
13,B29,0.0671 KA relative to UGCAUGU
14,B30,0.14 KA relative to UGCAUGU
15,B31,0.0927 KA relative to UGCAUGU
